A lower IC50 marks a more sensitive line; a limit (>, <) means that the fit lies beyond the doses tested. AUC, from the same fit, is the share of area under the viability curve across the 256-fold dose range; values near 1 show little effect. The top dose, if marked as inferred, is not printed in the source and was worked back from the curve model.
Compound: CCCCCCCCCCCC1=C(O)C(=O)C=C(O)C1=O [Embelin]
Experiment: Viability of human cancer cell lines after 72 h of drug (GDSC screen)
Conditions: top dose 32 µM; top dose inferred
Protocol: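 Human cancer cell lines in 384-well plates, medium with 10% serum, drug for 72 h over a 256-fold dose range (nine 2-fold or five 4-fold steps up to the top dose). Adherent lines were fixed and stained with the nucleic acid dye Syto60, suspension lines read with resazurin; signal relative to control wells, capped at 0 and 100%. One two-parameter sigmoid per drug and line, fitted in a mixed model over all curves with the slope shared within a line.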

HH (T-cell leukaemia, suspension)
AUC: 0.882 | IC50: > 32 µM

HL-60 (acute myeloid leukaemia, suspension)
AUC: 0.71 | IC50: 7.29 µM

HLE (liver, adherent)
AUC: 0.693 | IC50: 6.71 µM

HMV-II (melanoma, adherent)
AUC: 0.661 | IC50: 6.23 µM

HN (head and neck, adherent)
AUC: 0.868 | IC50: 26.1 µM

HO-1-N-1 (head and neck, adherent)
AUC: 0.788 | IC50: 12.8 µM

HO-1-u-1 (head and neck, adherent)
AUC: 0.748 | IC50: 9.9 µM

HOP-62 (lung adenocarcinoma, adherent)
AUC: 0.648 | IC50: 5.12 µM

HOP-92 (large cell lung carcinoma, adherent)
AUC: 0.714 | IC50: 8.98 µM

HOS (osteosarcoma, adherent)
AUC: 0.727 | IC50: 7.74 µM

HPAC (pancreas, adherent)
AUC: 0.654 | IC50: 6.41 µM

HPAF-II (pancreas, adherent)
AUC: 0.79 | IC50: 19.4 µM

HSC-2 (head and neck, adherent)
AUC: 0.722 | IC50: 8.03 µM

HSC-3 (head and neck, adherent)
AUC: 0.813 | IC50: 14.3 µM

HSC-4 (head and neck, adherent)
AUC: 0.755 | IC50: 14.2 µM

HSC-39 (stomach, suspension)
AUC: 0.927 | IC50: > 32 µM

HT55 (large intestine, adherent)
AUC: 0.884 | IC50: > 32 µM

HT (B-cell lymphoma, suspension)
AUC: 0.677 | IC50: 5.94 µM

HT-3 (cervix, adherent)
AUC: 0.849 | IC50: 24.7 µM

HT-29 (large intestine, adherent)
AUC: 0.753 | IC50: 10.7 µM

HT-115 (large intestine, adherent)
AUC: 0.948 | IC50: > 32 µM

HT-144 (melanoma, adherent)
AUC: 0.731 | IC50: 9.92 µM

HT-1080 (fibrosarcoma, adherent)
AUC: 0.649 | IC50: 4.93 µM

HT-1197 (bladder, adherent)
AUC: 0.836 | IC50: 27 µM

HT-1376 (bladder, adherent)
AUC: 0.687 | IC50: 7.39 µM

HTC-C3 (thyroid, adherent)
AUC: 0.73 | IC50: 9.88 µM

HUTU-80 (digestive system, adherent)
AUC: 0.539 | IC50: 2.5 µM

HeLa (cervix, adherent)
AUC: 0.728 | IC50: 8.59 µM

Hep 3B2_1-7 (liver, adherent)
AUC: 0.723 | IC50: 8.6 µM

Hs633T (fibrosarcoma, adherent)
AUC: 0.638 | IC50: 4.44 µM

Hs683 (glioma, adherent)
AUC: 0.706 | IC50: 7.67 µM

Hs766T (pancreas, adherent)
AUC: 0.613 | IC50: 4.52 µM

Hs939-T (melanoma, adherent)
AUC: 0.65 | IC50: 5.43 µM

Hs940-T (melanoma, adherent)
AUC: 0.699 | IC50: 8.24 µM

Hs-445 (Hodgkin lymphoma, suspension)
AUC: 0.807 | IC50: 14.9 µM

Hs-578-T (breast, adherent)
AUC: 0.767 | IC50: 12.6 µM

HuCCT1 (biliary tract, adherent)
AUC: 0.747 | IC50: 11.3 µM

HuH-7 (liver, adherent)
AUC: 0.764 | IC50: 11.6 µM

HuO9 (osteosarcoma, adherent)
AUC: 0.866 | IC50: > 32 µM

HuO-3N1 (osteosarcoma, adherent)
AUC: 0.898 | IC50: > 32 µM

HuP-T3 (pancreas, adherent)
AUC: 0.948 | IC50: > 32 µM

HuP-T4 (pancreas, adherent)
AUC: 0.692 | IC50: 7.19 µM

IA-LM (large cell lung carcinoma, adherent)
AUC: 0.531 | IC50: 2.46 µM

IGR-1 (melanoma, adherent)
AUC: 0.667 | IC50: 5.47 µM

IGR-37 (melanoma, adherent)
AUC: 0.622 | IC50: 4.19 µM

IHH-4 (thyroid, semi-adherent)
AUC: 0.751 | IC50: 8.76 µM

IM-9 (myeloma, suspension)
AUC: 0.96 | IC50: > 32 µM

IM-95 (stomach, adherent)
AUC: 0.715 | IC50: 8.53 µM

IMR-5 (neuroblastoma, adherent)
AUC: 0.893 | IC50: 27.4 µM

IPC-298 (melanoma, adherent)
AUC: 0.791 | IC50: 14.1 µM

IST-MEL1 (melanoma, adherent)
AUC: 0.699 | IC50: 8.18 µM

IST-MES1 (mesothelioma, adherent)
AUC: 0.906 | IC50: > 32 µM

IST-SL1 (small cell lung carcinoma, semi-adherent)
AUC: 0.889 | IC50: > 32 µM

IST-SL2 (small cell lung carcinoma, suspension)
AUC: 0.93 | IC50: > 32 µM

J82 (bladder, adherent)
AUC: 0.675 | IC50: 6.15 µM

JAR (urogenital system, adherent)
AUC: 0.957 | IC50: > 32 µM

JEG-3 (urogenital system, adherent)
AUC: 0.795 | IC50: 13.2 µM

JHH-1 (liver, adherent)
AUC: 0.666 | IC50: 6.04 µM

JHH-2 (liver, adherent)
AUC: 0.936 | IC50: > 32 µM

JHH-4 (liver, adherent)
AUC: 0.698 | IC50: 7.18 µM

JHH-6 (liver, adherent)
AUC: 0.802 | IC50: 16.1 µM

JHH-7 (liver, adherent)
AUC: 0.633 | IC50: 4.53 µM

JHU-011 (head and neck, adherent)
AUC: 0.777 | IC50: 12.6 µM

JHU-022 (head and neck, adherent)
AUC: 0.877 | IC50: > 32 µM

JHU-029 (head and neck, adherent)
AUC: 0.685 | IC50: 7.5 µM

JIMT-1 (breast, adherent)
AUC: 0.777 | IC50: 13.9 µM

JJN-3 (haematopoietic neoplasm, suspension)
AUC: 0.911 | IC50: 31.2 µM

JM1 (B-cell lymphoma, suspension)
AUC: 0.717 | IC50: 7.39 µM

JSC-1 (B-cell lymphoma, suspension)
AUC: 0.798 | IC50: 15 µM

JURL-MK1 (chronic myeloid leukaemia, suspension)
AUC: 0.798 | IC50: 15.1 µM

JVM-2 (lymphoid neoplasm, suspension)
AUC: 0.977 | IC50: > 32 µM

JVM-3 (lymphoid neoplasm, suspension)
AUC: 0.965 | IC50: > 32 µM

JiyoyeP-2003 (Burkitt lymphoma, suspension)
AUC: 0.723 | IC50: 7.83 µM

K2 (melanoma, adherent)
AUC: 0.732 | IC50: 11.3 µM

K5 (thyroid, adherent)
AUC: 0.86 | IC50: 25.1 µM

KALS-1 (glioma, adherent)
AUC: 0.787 | IC50: 19.9 µM

KARPAS-45 (lymphoblastic leukaemia, suspension)
AUC: 0.827 | IC50: 15.4 µM

KARPAS-231 (B-cell leukaemia, suspension)
AUC: 0.679 | IC50: 5.55 µM

KARPAS-299 (anaplastic large cell lymphoma, suspension)
AUC: 0.973 | IC50: > 32 µM

KARPAS-422 (B-cell lymphoma, suspension)
AUC: 0.825 | IC50: 18.8 µM

KARPAS-620 (haematopoietic neoplasm, suspension)
AUC: 0.852 | IC50: 19.5 µM
